Hit rate of the full screen: of about 310,000 compounds, about 14,000 (4.5%) showed an effect of 50% or more. The effect is printed as a negative number. The list shows a part of the results.
The compounds below were run against human ether-à-go-go-related gene (hERG) potassium channel (human, UniProt Q12809) (assay: primary screen, population patch clamp on CHO cells stably expressing hERG).
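Also: peak tail current of the secondary pulse compared with the same well before compound.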

Sequence of human ether-à-go-go-related gene (hERG) potassium channel (Q12809 whole entry, looked up): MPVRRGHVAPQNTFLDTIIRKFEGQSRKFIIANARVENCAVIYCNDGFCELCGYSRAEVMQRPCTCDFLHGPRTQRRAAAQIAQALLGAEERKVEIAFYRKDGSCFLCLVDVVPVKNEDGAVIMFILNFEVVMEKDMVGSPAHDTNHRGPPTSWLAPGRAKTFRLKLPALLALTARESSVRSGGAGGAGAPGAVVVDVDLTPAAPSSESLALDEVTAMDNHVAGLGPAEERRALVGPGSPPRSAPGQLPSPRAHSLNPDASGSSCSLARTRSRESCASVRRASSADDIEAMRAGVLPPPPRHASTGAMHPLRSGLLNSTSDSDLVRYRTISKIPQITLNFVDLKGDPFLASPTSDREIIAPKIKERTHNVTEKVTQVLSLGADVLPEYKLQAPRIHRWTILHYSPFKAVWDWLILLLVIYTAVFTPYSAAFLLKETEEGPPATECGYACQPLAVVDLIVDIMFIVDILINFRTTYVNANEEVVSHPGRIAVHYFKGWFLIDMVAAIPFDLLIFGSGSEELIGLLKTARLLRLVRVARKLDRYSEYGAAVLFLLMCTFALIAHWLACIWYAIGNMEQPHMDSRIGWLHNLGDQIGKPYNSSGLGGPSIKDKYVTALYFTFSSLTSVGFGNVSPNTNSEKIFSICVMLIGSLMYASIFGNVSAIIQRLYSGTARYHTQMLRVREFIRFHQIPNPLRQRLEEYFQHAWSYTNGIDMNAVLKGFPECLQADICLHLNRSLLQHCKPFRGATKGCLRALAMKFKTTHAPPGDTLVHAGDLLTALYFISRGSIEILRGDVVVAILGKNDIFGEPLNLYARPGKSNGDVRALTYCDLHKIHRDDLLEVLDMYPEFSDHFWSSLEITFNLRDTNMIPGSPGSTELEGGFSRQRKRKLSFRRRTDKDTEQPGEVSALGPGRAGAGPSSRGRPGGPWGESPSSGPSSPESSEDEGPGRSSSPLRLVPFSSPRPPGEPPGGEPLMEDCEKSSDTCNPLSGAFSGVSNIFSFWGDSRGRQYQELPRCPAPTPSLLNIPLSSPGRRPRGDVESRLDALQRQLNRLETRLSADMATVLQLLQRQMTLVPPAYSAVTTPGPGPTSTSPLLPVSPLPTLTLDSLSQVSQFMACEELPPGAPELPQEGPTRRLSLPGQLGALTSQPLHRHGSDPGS

Compound	hERG current change (%, negative = inhibition) at 10uM [%]
Cc1cccc(N(CC(=O)NCc2ccc3c(c2)OCO3)C(=O)CCC(=O)Nc2ccccn2)c1	5.31
CC(C)(O)CC[C@H](OC(=O)c1ccccc1)[C@](C)(O)[C@H]1CC[C@@]2(O)C3=CC(=O)[C@@H]4C[C@@H](O)[C@H](O)C[C@]4(C)C3CC[C@]12C (stereo partly drawn)	16.2
CCCCNC(=O)Cn1c(=O)c2c(ncn2CC)n(Cc2ccccc2)c1=O	9.58
CC(C)CN(CC(C)C)C(=O)Cc1coc2ccc3ccccc3c12	-1.97
O=C(C1CCC(=O)N(C2CCCCCC2)C1)N1CCN(c2ccccc2Cl)CC1 (stereo not drawn)	-42.9
CC(=O)NS(=O)(=O)c1cccnc1Nc1cccc(Cl)c1	5.82
COC(=O)[C@H]1C[C@@H]1[C@H](NC(=O)c1ccccc1)c1ccccc1	2.26
Cc1cc(NC(=O)CSc2nc(-c3ccco3)cc(C(F)(F)F)n2)n(-c2ccccc2)n1	11.6
CCOc1ccccc1CNC(=O)c1ccc(Sc2ccc(Cl)cc2)c(NC(C)=O)c1	-19.4
O=C(O)CCSc1nc2ccccc2n1-c1ccccc1	12.5
Cc1ccc(-c2cc(-c3ccc(C)cc3)[n+](-c3ccccc3)c(-c3ccc(C)cc3)c2)cc1.[O-][Cl+3]([O-])([O-])[O-]	-80.2
Cc1cc(C)nc(SCCC(=O)Nc2ccccc2)n1	-6.4
Cc1ccc(CNC(=O)CCS(=O)(=O)c2ccc(C)cc2)cc1	-17.6
O=C(COC(=O)c1cccs1)NCC1CCCCC1	13.4
CCOC(=O)Cc1cc(-c2ccc(F)cc2)nc2ccc3ccccc3c12	22
O=C(CCC(=O)Nc1ccccc1Cl)N/N=C/c1ccccc1	16.5
C=CC[C@]12C=C(OC)C(=O)C(OC)=C1O[C@@H](c1ccc3c(c1)OCO3)[C@H]2C	10.8
O=C(Cc1cccs1)Nc1ccc(S(=O)(=O)N2CCCC2)cc1	10.6
CCOC(=O)C1(CC2CCCCO2)CCN(C(=O)Nc2ccccc2CC)CC1 (stereo not drawn)	-49
Cc1ccc(C(=O)NCC(=O)OCC(=O)c2ccc3c(c2)OCCO3)cc1C	8.26
COc1cc(-c2cc(C(=O)Nc3c(Cl)cc(Cl)cc3Cl)c3ccccc3n2)cc(OC)c1OC	-7.42

Compound	hERG current change (%, negative = inhibition) at 10uM [%]
CC(=O)N1CN2CN(C(C)=O)CC(C(=O)c3ccccc3)(C2)C1	11
CC1CN(C2=CC(=O)CCC2)CC(C)O1 (stereo not drawn)	34.6
CC1CC(=O)N(c2ccc(NCCc3ccccc3)c([N+](=O)[O-])c2)C1=O (stereo not drawn)	-8.36
COc1ccc(C2C(C(C)=O)=C(C)N=c3s/c(=C\c4cc(C)n(C)c4C)c(=O)n32)c(OC)c1 (stereo not drawn)	-8.87
COc1ccc(CCNC(=O)c2nnn(CC(=O)Nc3ccc(C)cc3C)c2N)cc1OC	13.8
CCOC(=O)C(NC(=O)CC)(Nc1sc2c(c1C(=O)OC)CCN(C)C2)C(F)(F)F (stereo not drawn)	-13.7
COc1ccc(CC2(C)OC(c3ccccc3)=NN2C(C)=O)cc1 (stereo not drawn)	-18.9
O=C(Cn1cc(C(=O)C(F)(F)F)c2ccccc21)Nc1ccccc1F	21.4
Cc1ccccc1OCC(=O)NCC(c1ccco1)N1CCCCC1 (stereo not drawn)	-31.4
COc1ccc(S(=O)(=O)n2nc(C)cc2C)cc1OC	5.17
Cc1cc(C(=O)CSc2nnc(-c3cccc(F)c3)n2N)c(C)n1Cc1ccc2c(c1)OCO2	7.69
COCc1c(C(=O)OC/C(O)=C(\C#N)c2nc3ccccc3[nH]2)oc2ccccc12	29.4
Cc1nn(C(=O)CCCC(=O)NCc2ccccc2)c2ccccc12	-4.39
Cc1csc(SCC(=O)NC(C)C2CC3CCC2C3)n1 (stereo not drawn)	-19.3
O=S1(=O)N=C(Nc2nc3c(s2)CCCC3)c2ccccc21	2.79
Cc1ccc(CNC(=O)C2CC3Cn4c(nc5cc(C)c(C)cc54)C3N2C)o1 (stereo not drawn)	-36.9
COc1ccc(CN2C(=O)NC(=O)/C(=C\c3ccc(OC)c(OC)c3OC)C2=O)cc1	19.3
CCOC(=O)C1=C(c2ccccc2)Nc2ncnn2C1c1cc(OC)cc(OC)c1OC (stereo not drawn)	-6.8
CNc1nc(-c2ccc3c(c2)CCN3S(=O)(=O)c2ccccc2)c(C)s1	6.35
Brc1cc(-c2ccccc2)nc(-c2ccccc2)n1	7.42
CN(CCc1ccccn1)C(=O)CCC1CCCN(C(=O)c2cccc(N(C)C)c2)C1 (stereo not drawn)	7.98
